# Experimental data taken from the supplement of paper PMC8728848.
# Some of the results follow.
# B1: AFCNVH (Aspergillus fumigatus) (protein)
# chain: MSLRGFHTTCDTIVLKDKHILSSRCKRPDGTYSFSEIDLNDCLGNNNGKFVWGGESFVDSASQVNLALEGGEGRPMLHAQLNDWHGSVQSASVNLGECIQNEAGGLEYMHC
# Assays:
# Experiment in all cases: glycan array binding signal (z-score within array); higher = stronger binding
# Settings in all cases: glycan notation: IUPAC condensed, linker removed
# [1] = target: Neu5Ac(a2-3)Gal(b1-4)GlcNAc(b1-2)Man(a1-3)[Neu5Ac(a2-6)Gal(b1-4)GlcNAc(b1-2)Man(a1-6)]Man(b1-4)GlcNAc(b1-4)GlcNAc
# How it was run: (§1)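 Arrays were curated from the Consortium for Functional Glycomics database, 3228 in total, and kept only where the protein sequence was available. Binding is expressed as a within-array Z-score. This score was averaged across arrays of the same protein sequence at different concentrations or buffers and across linkers, and negative values can be read as non-binding.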
# [2] = target: Neu5Ac(a2-3)Gal(b1-4)GlcNAc(b1-2)[Neu5Ac(a2-3)Gal(b1-4)GlcNAc(b1-4)]Man(a1-3)[GlcNAc(b1-4)][Neu5Ac(a2-3)Gal(b1-4)GlcNAc(b1-2)[Neu5Ac(a2-3)Gal(b1-4)GlcNAc(b1-6)]Man(a1-6)]Man(b1-4)GlcNAc(b1-4)GlcNAc
# How it was run: as §1
# [3] = target: Neu5Ac(a2-3)Gal(b1-4)GlcNAc(b1-2)[Neu5Ac(a2-3)Gal(b1-4)GlcNAc(b1-4)]Man(a1-3)[GlcNAc(b1-4)][Neu5Ac(a2-3)Gal(b1-4)GlcNAc(b1-4)Man(a1-6)]Man(b1-4)GlcNAc(b1-4)GlcNAc
# How it was run: as §1
# [4] = target: Neu5Ac(a2-3)Gal(b1-4)GlcNAc(b1-2)[Neu5Ac(a2-3)Gal(b1-4)GlcNAc(b1-6)]Man(a1-6)[Neu5Ac(a2-3)Gal(b1-4)GlcNAc(b1-2)Man(a1-3)][GlcNAc(b1-4)]Man(b1-4)GlcNAc(b1-4)GlcNAc
# How it was run: as §1
# [5] = target: Neu5Ac(a2-3)Gal(b1-4)GlcNAc(b1-3)Gal
# How it was run: as §1
# [6] = target: Neu5Ac(a2-3)Gal(b1-4)GlcNAc(b1-3)Gal(b1-3)GlcNAc
# How it was run: as §1
# [7] = target: Neu5Ac(a2-3)Gal(b1-4)GlcNAc(b1-3)Gal(b1-4)GlcNAc
# How it was run: as §1
# [8] = target: Neu5Ac(a2-3)Gal(b1-4)GlcNAc(b1-3)Gal(b1-4)GlcNAc(b1-2)Man(a1-3)[Neu5Ac(a2-3)Gal(b1-4)GlcNAc(b1-3)Gal(b1-4)GlcNAc(b1-2)Man(a1-6)]Man(b1-4)GlcNAc(b1-4)GlcNAc
# How it was run: as §1
# [9] = target: Neu5Ac(a2-3)Gal(b1-4)GlcNAc(b1-3)Gal(b1-4)GlcNAc(b1-3)Gal(b1-4)GlcNAc
# How it was run: as §1
# [10] = target: Neu5Ac(a2-3)Gal(b1-4)GlcNAc(b1-3)Gal(b1-4)GlcNAc(b1-3)Gal(b1-4)GlcNAc(b1-2)Man(a1-3)[Neu5Ac(a2-3)Gal(b1-4)GlcNAc(b1-3)Gal(b1-4)GlcNAc(b1-3)Gal(b1-4)GlcNAc(b1-2)Man(a1-6)]GalNAc
# How it was run: as §1
# [11] = target: Neu5Ac(a2-3)Gal(b1-4)GlcNAc(b1-3)Gal(b1-4)GlcNAc(b1-3)GalNAc
# How it was run: as §1
# [12] = target: Neu5Ac(a2-3)Gal(b1-4)GlcNAc(b1-3)Gal(b1-4)GlcNAc(b1-3)[Neu5Ac(a2-3)Gal(b1-4)GlcNAc(b1-3)Gal(b1-4)GlcNAc(b1-6)]GalNAc
# How it was run: as §1
# [13] = target: Neu5Ac(a2-3)Gal(b1-4)GlcNAc(b1-3)Gal(b1-4)GlcNAc(b1-6)[Gal(b1-3)]GalNAc
# How it was run: as §1
# [14] = target: Neu5Ac(a2-3)Gal(b1-4)GlcNAc(b1-3)Gal(b1-4)[Fuc(a1-3)]GlcNAc
# How it was run: as §1
# [15] = target: Neu5Ac(a2-3)Gal(b1-4)GlcNAc(b1-3)GalNAc
# How it was run: as §1
# [16] = target: Neu5Ac(a2-3)Gal(b1-4)GlcNAc(b1-3)[Neu5Ac(a2-3)Gal(b1-4)GlcNAc(b1-6)]GalNAc
# How it was run: as §1
# [17] = target: Neu5Ac(a2-3)Gal(b1-4)GlcNAc(b1-6)GalNAc
# How it was run: as §1
# [18] = target: Neu5Ac(a2-3)Gal(b1-4)GlcNAc(b1-6)[Gal(b1-3)]GalNAc
# How it was run: as §1
# [19] = target: Neu5Ac(a2-3)Gal(b1-4)GlcNAc(b1-6)[Neu5Ac(a2-3)Gal(b1-3)]GalNAc
# How it was run: as §1
# [20] = target: Neu5Ac(a2-3)Gal(b1-4)GlcNAc6S
# How it was run: as §1
# [21] = target: Neu5Ac(a2-3)Gal(b1-4)[Fuc(a1-3)]GlcNAc
# How it was run: as §1
# [22] = target: Neu5Ac(a2-3)Gal(b1-4)[Fuc(a1-3)]GlcNAc(b1-2)Man
# How it was run: as §1
# [23] = target: Neu5Ac(a2-3)Gal(b1-4)[Fuc(a1-3)]GlcNAc(b1-3)Gal
# How it was run: as §1
# [24] = target: Neu5Ac(a2-3)Gal(b1-4)[Fuc(a1-3)]GlcNAc(b1-3)Gal(b1-4)GlcNAc
# How it was run: as §1
# [25] = target: Neu5Ac(a2-3)Gal(b1-4)[Fuc(a1-3)]GlcNAc(b1-3)Gal(b1-4)[Fuc(a1-3)]GlcNAc(b1-3)Gal(b1-4)[Fuc(a1-3)]GlcNAc
# How it was run: as §1
# [26] = target: Neu5Ac(a2-3)Gal(b1-4)[Fuc(a1-3)]GlcNAc(b1-3)GalNAc
# How it was run: as §1
# [27] = target: Neu5Ac(a2-3)Gal(b1-4)[Fuc(a1-3)]GlcNAc(b1-6)[Gal(b1-3)]GalNAc
# How it was run: as §1
# [28] = target: Neu5Ac(a2-3)Gal(b1-4)[Fuc(a1-3)]GlcNAc(b1-6)[Neu5Ac(a2-3)Gal(b1-3)]GalNAc
# How it was run: as §1
# [29] = target: Neu5Ac(a2-3)Gal(b1-4)[Fuc(a1-3)]GlcNAc6S
# How it was run: as §1
# [30] = target: Neu5Ac(a2-3)Gal6S(b1-4)GlcNAc
# How it was run: as §1
# [31] = target: Neu5Ac(a2-3)Gal6S(b1-4)[Fuc(a1-3)]GlcNAc
# How it was run: as §1
# [32] = target: Neu5Ac(a2-3)GalNAc
# How it was run: as §1
# [33] = target: Neu5Ac(a2-3)GalNAc(b1-4)GlcNAc
# How it was run: as §1
# [34] = target: Neu5Ac(a2-3)[GalNAc(b1-4)]Gal(b1-4)Glc
# How it was run: as §1
# [35] = target: Neu5Ac(a2-3)[GalNAc(b1-4)]Gal(b1-4)GlcNAc
# How it was run: as §1
# [36] = target: Neu5Ac(a2-3)[GalNAc(b1-4)]Gal(b1-4)GlcNAc(b1-3)GalNAc
# How it was run: as §1
# [37] = target: Neu5Ac(a2-3)[Neu5Ac(a2-6)]GalNAc
# How it was run: as §1
# [38] = target: Neu5Ac(a2-6)Gal
# How it was run: as §1
# [39] = target: Neu5Ac(a2-6)Gal(b1-3)GlcNAc(b1-3)[Gal(b1-4)GlcNAc(b1-6)]Gal(b1-4)Glc
# How it was run: as §1
# [40] = target: Neu5Ac(a2-6)Gal(b1-4)Glc
# How it was run: as §1
# [41] = target: Neu5Ac(a2-6)Gal(b1-4)GlcNAc
# How it was run: as §1
# [42] = target: Neu5Ac(a2-6)Gal(b1-4)GlcNAc(b1-2)Man
# How it was run: as §1
# [43] = target: Neu5Ac(a2-6)Gal(b1-4)GlcNAc(b1-2)Man(a1-3)Man(b1-4)GlcNAc(b1-4)GlcNAc
# How it was run: as §1
# [44] = target: Neu5Ac(a2-6)Gal(b1-4)GlcNAc(b1-2)Man(a1-3)[Gal(b1-4)GlcNAc(b1-2)Man(a1-6)]Man(b1-4)GlcNAc(b1-4)GlcNAc
# How it was run: as §1
# [45] = target: Neu5Ac(a2-6)Gal(b1-4)GlcNAc(b1-2)Man(a1-3)[GlcNAc(b1-2)Man(a1-6)]Man(b1-4)GlcNAc(b1-4)GlcNAc
# How it was run: as §1
binder,measurement,setting,value
B1,glycan array binding signal (z-score),[1],-0.306
same,glycan array binding signal (z-score),[2],-0.351
same,glycan array binding signal (z-score),[3],-0.296
same,glycan array binding signal (z-score),[4],0.322
same,glycan array binding signal (z-score),[5],-0.498
same,glycan array binding signal (z-score),[6],-0.447
same,glycan array binding signal (z-score),[7],-0.373
same,glycan array binding signal (z-score),[8],-1.1
same,glycan array binding signal (z-score),[9],0.197
same,glycan array binding signal (z-score),[10],-0.328
same,glycan array binding signal (z-score),[11],-0.383
same,glycan array binding signal (z-score),[12],-0.306
same,glycan array binding signal (z-score),[13],-0.647
same,glycan array binding signal (z-score),[14],-0.398
same,glycan array binding signal (z-score),[15],-0.339
same,glycan array binding signal (z-score),[16],-0.369
same,glycan array binding signal (z-score),[17],-0.246
same,glycan array binding signal (z-score),[18],-0.369
same,glycan array binding signal (z-score),[19],-0.416
same,glycan array binding signal (z-score),[20],-0.307
same,glycan array binding signal (z-score),[21],-0.537
same,glycan array binding signal (z-score),[22],-0.566
same,glycan array binding signal (z-score),[23],-0.316
same,glycan array binding signal (z-score),[24],-0.058
same,glycan array binding signal (z-score),[25],-0.394
same,glycan array binding signal (z-score),[26],-0.187
same,glycan array binding signal (z-score),[27],-1.57
same,glycan array binding signal (z-score),[28],-0.276
same,glycan array binding signal (z-score),[29],-0.306
same,glycan array binding signal (z-score),[30],-0.279
same,glycan array binding signal (z-score),[31],-0.565
same,glycan array binding signal (z-score),[32],-0.339
same,glycan array binding signal (z-score),[33],-0.24
same,glycan array binding signal (z-score),[34],-0.476
same,glycan array binding signal (z-score),[35],-0.462
same,glycan array binding signal (z-score),[36],-0.458
same,glycan array binding signal (z-score),[37],-0.677
same,glycan array binding signal (z-score),[38],-0.55
same,glycan array binding signal (z-score),[39],-0.538
same,glycan array binding signal (z-score),[40],-0.576
same,glycan array binding signal (z-score),[41],-0.569
same,glycan array binding signal (z-score),[42],-0.324
same,glycan array binding signal (z-score),[43],0.695
same,glycan array binding signal (z-score),[44],-0.299
same,glycan array binding signal (z-score),[45],-0.339
